# Source: PubChem BioAssay AID624417 (National Center for Advancing Translational Sciences (NCATS), 2012)
# Screen size: about 410,000 compounds; about 6,400 (1.6%) were called active. Inconclusive results, whose numbers are uncertain, are shown with a selection of clear calls. Calls come from the whole dose curve; as a rule, active = well fitted inhibition curve with a large enough effect; inconclusive = small, poorly fitted or top-dose-only effect; inactive = no such curve, though single readings can be large or run the other way. Potencies of inconclusive entries are left out as doubtful fits.
# Molecular target: Glucagon-like peptide 1 receptor (Homo sapiens) (UniProt P43220)
# Assay: qHTS of GLP-1 Receptor Inverse Agonists (Inhibition Mode); note: nearly all actives have a fitted effect of over 55% in size
# Conditions: HEK293 GLP-1R CRE-luciferase, luminescence, 24 h, GLP-1R form is constitutively active; activity change, negative = inhibition: at 38.3 µM (top of the series) unless noted
# In short: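 Cells are plated, allowed 12 hours at 37 deg C, then treated with compounds for 24 hr before luciferase detection reagent is added and luminescence is read after 12 min at room temperature. The HEK293 line carries constitutively active GLP-1R with a cAMP-responsive reporter.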
# % is set by controls: 0 for no effect and ±100 for the full control effect; potency is the fitted concentration of half-maximal effect; tags give direction and shape of the fitted curve.
# UniProt P43220, sequence (P43220 whole entry, looked up): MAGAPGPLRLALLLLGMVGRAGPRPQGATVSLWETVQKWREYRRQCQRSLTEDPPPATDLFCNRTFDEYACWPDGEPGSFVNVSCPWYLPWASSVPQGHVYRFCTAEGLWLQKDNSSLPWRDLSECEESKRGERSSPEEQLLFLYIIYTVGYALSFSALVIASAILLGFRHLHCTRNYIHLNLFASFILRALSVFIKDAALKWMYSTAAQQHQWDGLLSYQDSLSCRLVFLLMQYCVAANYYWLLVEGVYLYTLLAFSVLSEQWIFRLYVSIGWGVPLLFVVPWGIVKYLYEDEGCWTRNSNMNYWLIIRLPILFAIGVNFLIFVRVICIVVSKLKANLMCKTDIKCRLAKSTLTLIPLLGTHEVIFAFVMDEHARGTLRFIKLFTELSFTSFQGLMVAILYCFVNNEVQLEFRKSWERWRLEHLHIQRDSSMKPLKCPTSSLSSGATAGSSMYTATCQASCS
Compound,Potency,"activity change, negative = inhibition"
Nc1nc(N)nc(COc2ccccc2)n1,inactive,
O=C(c1cccc(Cl)c1)N1CCC(c2nc3c(nnn3Cc3ccc(F)cc3F)c(=O)[nH]2)CC1,inactive,
CCN1C(=O)N(c2cccc3ccccc23)C(C)=CC1(C)C,"inconclusive [inhibitor, single point]",
Cc1ccc(-c2nnc(Nc3ccc(Cl)cc3)c3ccccc23)cc1S(=O)(=O)NCC1CCCO1 (centres undefined),"inconclusive [inhibitor, single point]",
COc1ccc(OC)c(C2C=C(C34CC5CC(CC(C5)C3)C4)NC(=S)N2)c1 (centres undefined),"inconclusive [inhibitor, full curve, poor fit]",
OCc1cccc(-c2csc(C(O)(c3ccccc3)C(F)(F)F)n2)c1 (centres undefined),"inconclusive [inhibitor, single point]",
COc1ccc(C(=O)c2cn(Cc3ccccc3F)c3ccc(F)cc3c2=O)cc1,"inconclusive [inhibitor, single point]",
CC(C)C(=O)N(Cc1ccc(F)cc1)Cc1nc2ccccc2c(=O)[nH]1,"inconclusive [inhibitor, partial curve, poor fit]",
NC(=O)C(c1ccc(F)cc1)c1ccc(C(=O)c2ccccc2)cc1 (centres undefined),"inconclusive [inhibitor, single point]",
COc1ccc(C(=O)Nc2ccc3c(c2)nc(CN2CCN(C(C)=O)CC2)n3C)cc1,inactive,
CCOc1ccc(C(=O)NCCS(=O)(=O)N2CCN(c3cccc(Cl)c3)CC2)cc1,inactive,
CCOC(=O)C[C@@H]1OC[C@H](Cc2ccccc2)N1S(=O)(=O)c1ccc(C)cc1,"inconclusive [inhibitor, partial curve, poor fit]",
CCOC(=O)c1c(NC(=O)Nc2ccccc2)sc(C)c1C,inactive,
O=c1c2c(nc3c(-c4cccc5ccccc45)c[nH]n13)CCC2,inactive,
Cc1ccc(CNC(=O)CSc2nccn(-c3ccc(C)c(F)c3)c2=O)cc1,"inconclusive [inhibitor, partial curve, poor fit]",
COc1ccc(C2=Nc3ccccc3N(C(=O)c3ccc4c(c3)OCO4)C2C(=O)NCc2ccccc2)cc1 (centres undefined),"inconclusive [inhibitor, single point]",
CC(=O)c1ccc(N2CCN(C(=O)CS(=O)(=O)c3cccc4nsnc34)CC2)cc1,inactive,
Cc1ccc(C(=O)C2CCNCC2)cc1,inactive,
CCSc1nnc([C@H](Cc2ccccc2)NC(=O)OC(C)(C)C)o1,"inconclusive [inhibitor, single point]",
COc1cc2c(cc1NC(=O)CN1C(=O)NC3(CCc4ccccc43)C1=O)oc1ccccc12 (centres undefined),"inconclusive [inhibitor, partial curve, poor fit]",
COc1ccc(NC(=O)CNS(=O)(=O)c2ccc(Cl)cc2)cc1,"inconclusive [inhibitor, partial curve, poor fit]",
CCCCOc1cccc(C(=O)N(Cc2ccc(Cl)cc2)C2CCS(=O)(=O)C2)c1 (centres undefined),"inconclusive [inhibitor, single point]",

Compound,Potency,"activity change, negative = inhibition"
COC(=O)[C@]12CCCCC=C1N(Cc1ccco1)C(=O)[C@H](CC(=O)NCC13CC4CC(CC(C4)C1)C3)C2,"inconclusive [inhibitor, single point]",
CCSCC1COC(c2cccn2Cc2ccc(C)cc2)=N1 (centres undefined),"inconclusive [inhibitor, partial curve, poor fit]",
COc1ccc(C2NC(=O)c3ccccc3N2)cc1 (centres undefined),,inconclusive: -40.6% [inhibitor]
COc1cc(C)ccc1OCCOCCOc1c(C)cc(C)cc1Br,"inconclusive [inhibitor, single point]",
CCC(=O)NNc1ccc(Br)cc1,"inconclusive [inhibitor, full curve, poor fit]",
CC(CN1CCN(C)CC1)OC(=O)c1ccccc1Cl (centres undefined),inactive,
O=S(=O)(Cc1ccccc1)N1CCC(c2nc(-c3cccs3)no2)CC1,"inconclusive [inhibitor, single point]",
Cc1cccc(OCC(=O)NS(=O)(=O)c2ccc(Br)cc2)c1,"inconclusive [inhibitor, partial curve, poor fit]",
Cc1ccc(C(=O)NC(C)c2ccccc2)cc1Br (centres undefined),"inconclusive [inhibitor, single point]",
O=C(NCCc1ccccc1)c1cccc(NC(=O)C2CC2)c1,inactive,
COc1ccc(C(C(=O)NC2CCCC2)N(C(=O)c2ccoc2C)c2cc(C)cc(C)c2)cc1 (centres undefined),inactive,
Cn1cc(CCC(=O)N2CCCC(C(=O)c3ccc(C(C)(C)C)cc3)C2)cn1 (centres undefined),active: 10 µM,
O=C(CN1CCC(O)(c2cccc(C(F)(F)F)c2)CC1)NCCc1ccccc1,"inconclusive [inhibitor, single point]",
CCC1=NN2C(=N)/C(=C\c3cccn3-c3ccc(C)c(C)c3)C(=O)N=C2S1,"inconclusive [inhibitor, single point]",
CCC1CCc2sc(C(=O)N3CCCN(C)CC3)cc2C1 (centres undefined),"inconclusive [inhibitor, full curve, poor fit]",
Cc1ccccc1-c1noc(CSc2nnc(Cc3ccccc3)n2-c2ccc(F)cc2)n1,"inconclusive [inhibitor, partial curve, poor fit]",
Cc1occc1C(=O)O/N=C(\N)c1ccc(Cl)cc1,"inconclusive [inhibitor, single point]",
CC(C)(C)c1ccc(/C=N/NC(=O)C2CCCC2)cc1,"inconclusive [inhibitor, partial curve, poor fit]",
O=C(NC(=S)Nc1ccccc1N1CCCC1)c1ccc(-c2cccc([N+](=O)[O-])c2)o1,"inconclusive [inhibitor, partial curve, poor fit]",
CCOC(=O)CNC(=O)CNC(=O)c1ccc(OCC(C)C)cc1,"inconclusive [inhibitor, partial curve]",
Cc1nc2ccc(NC(=O)c3ccccc3)cc2s1,inactive,
CCNC(=O)C1(C)CCN(Cc2csc(-c3ccccc3)n2)C1 (centres undefined),"inconclusive [inhibitor, partial curve, poor fit]",

Compound,Potency,"activity change, negative = inhibition"
CCOC(=O)N1CCc2c(sc(NCc3ccc(OC)c(Br)c3)c2C(=O)Nc2cc(OC)ccc2OC)C1,inactive,
CCn1c(CSCc2ccc(F)cc2)nnc1SCC(=O)N1CCN(c2ccccc2)CC1,"inconclusive [inhibitor, partial curve, poor fit]",
CCCn1c(COc2ccccc2)nc2ccccc21,"inconclusive [inhibitor, single point]",
COC(=O)[C@]12CCCCC=C1N(CCc1ccc(OC)c(OC)c1)C(=O)[C@H](CC(=O)NCc1cccc(C(F)(F)F)c1)C2,"inconclusive [inhibitor, single point]",
O=C(c1ccccc1)N1CCC(CC2CC(c3ccc(Cl)cc3)=NO2)(C(=O)NCC2CCCCC2)CC1 (centres undefined),"inconclusive [inhibitor, single point]",
CCOC(=O)N1CC(=O)Nc2ccc(Br)cc2C1c1ccccc1 (centres undefined),"inconclusive [inhibitor, partial curve, poor fit]",
Cc1cccc(N(Cc2ccccc2)C(=O)CSC(C)C(=O)Nc2cc(C)on2)c1 (centres undefined),"inconclusive [inhibitor, single point]",
CCc1cccc(C)c1NC(=O)COC(=O)c1c2c(nc3ccccc13)/C(=C\c1cccs1)CCC2,"inconclusive [inhibitor, partial curve, poor fit]",
CNc1nnc(-c2cccc(N(C)C)c2)s1,inactive,
CCN(CC)S(=O)(=O)c1ccc(C(=O)Nc2ccc3c(c2)OCO3)cc1,"inconclusive [inhibitor, partial curve]",
COc1ccc(NC(C)=O)cc1S(=O)(=O)Nc1ccc(OCc2ccccc2)cc1,"inconclusive [inhibitor, partial curve, poor fit]",
Cc1ccc(C(C)C)c(OCCCN(C)Cc2ccccc2)c1,"inconclusive [inhibitor, partial curve, poor fit]",
COCCCNC(=O)/C(C#N)=C/c1cccc(NC(=O)c2ccccc2Cl)c1,"inconclusive [inhibitor, single point]",
C=C1CC(COc2cc(=O)oc3ccccc23)(c2ccccc2)OC1=O (centres undefined),"inconclusive [inhibitor, single point]",
CC(=O)N1CCOc2ccc(S(=O)(=O)N3CCC(C(=O)Nc4ccc(C)c(C)c4)CC3)cc21,"inconclusive [inhibitor, single point]",
COc1ccc(N2CCN(C(=O)c3cc(=O)c4ccc(C)cc4o3)CC2)cc1,inactive,
COc1ccc(NC(=O)CCOc2ccc(C)cc2)cc1S(=O)(=O)N1CCCCC1,active: 7.08 µM,
COc1ccc(CNC(=O)C(c2ccncc2)N(C(=O)Cc2cccs2)c2ccc(C)cc2)cc1 (centres undefined),"inconclusive [inhibitor, single point]",
CCSC1=C(C#N)C(c2cccs2)C(C(=O)OC)=C(C)N1 (centres undefined),"inconclusive [inhibitor, single point]",
Cc1ccc(OCCCC(=O)Nc2ccc(S(=O)(=O)N3CCOCC3)cc2)cc1,"inconclusive [inhibitor, single point]",
